We go through 34 variants from the RNAGym collection of RNA variant scans (doi:10.1093/nar/gkz1192).

The chains are these.
B1: CPEB3 Ribozyme (parent)
chain: UAACAGGGGGCCACAGCAGAAGCGUUCACGUCGCAGCCCCUGUCAGAUUCUGGUGAAUCUGCGAAUUCUGCUGUAUAUCUC

Read counts are not given, so values of variants with three or more changes are uncertain.

The variants in this data set derive from B1. Briefly: self-cleavage, relative activity (ratio to wild type); higher = more cleavage; in vitro, sequencing. The essentials:
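CPEB3 self-cleaving ribozyme mutant libraries were made by rounds of error-prone PCR, barcoded, and transcribed in vitro with T7 RNA polymerase for 5 hours at 37°C. Cleavage occurred during transcription and a 15 min DNase I step before EDTA stop. RNAs were reverse transcribed with template switching and Illumina-sequenced, with DNA sequencing mapping barcodes to variants. Relative activity is the variant's cleaved/total read fraction divided by wild type's (minimum 5 reads), averaged across three batches.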
As to UAACAGGGGGCCUCAGCAGAAGCGUCCAUGUCGCAGCCCCCGUCGGAUUCUGGUGAAUCUGCGAAUUCUGCUGCAUAUCUC [A13U U26C C29U U41C A45G U74C], the self-cleavage was 0.16.
The figure for UAACAGGGGGCCUCAGCAGAAGCGUCCACGUCGCAGCCCCUGUCAGAUUCCGGUGAAUCUGCGAAUUCUGCUGUAUAUCUC [A13U U26C U51C] is 0.45.
Regarding UAACAGGGGGCCUCAGCAGAAGCGUACAGGUCGCUGCCCCUGUCAGAUUCUGGUGAAUCUGCGAAUUCUGCAGUAUAUCUC [A13U U26A C29G A35U U72A], the self-cleavage is 0.09.
With UAACAGGGGGCCUCAGCAGAAGCGCUCACGUCGCAGCCCCCGCCUGAUUCUGGUGAGUCUGCGAAUUCUGCUGUAUAUCUC [A13U U25C U41C U43C A45U A57G], the self-cleavage was determined as 0.22.
The figure for UAACAGGGGGCCUCAGCAGAAGCGCUCACGUCGCAGCCCCUGUCAGAUUCUGGUGAAUCUGCGAAUCCUGCUGUAUAUCUC [A13U U25C U67C] is 0.16; for UAACAGGGGGCCUCAGCAGAAGCGUACUCGUCGCAGCCCCUGUCGGAUUCUGGUGAAUCUGCGAAUUCUGCUGUAUAUCUC [A13U U26A A28U A45G] it is 0.47.
With UAACAGGGGGCCUCAGCAGAAGCGUACACGUCGCAGCCCCUGUCAGAUUCUGGUGAAUCUGCGAGUUCUGCUGUAUAUCUC [A13U U26A A65G], the self-cleavage worked out at 0.55.
Then UAACAGGGGGCCUCAGCAGAAGCGUUCACGACGCAGCCCCUGUCCGAUUCUGGUGAAUCUGCGAAUUCUGCUGUAUAUCUC [A13U U31A A45C], with 0.16.
The figure for UAACAGGGGGCCUCAGCAGAAGCGUGCACGUCGCAGCCCCUGUCAGAUUCUGGUGAAUCUGCGGAUUCACCAGUAUAUCUC [A13U U26G A64G U69A G70C U72A] is 0.14.
In the case of UAACAGGGGGCCUCAGCAGAAGCGUCCACGUCGCAGCCCCUGUCAGAUUCUGGUGAUUCUGCGAAUUCUGCUGUAUAUCUC [A13U U26C A57U], the self-cleavage was 0.11.
Then UAACAGGGGGCCUCAGCAGAAGCGUCCACGUCGCAGCCCCUGUCAGAUUCUGGAGAAUCUGCGAAUUCUGCUGUAUACCUC [A13U U26C U54A U78C], with 0.4.
Then UAACAGGGGGCCUCAGCAGAAGCGUCCACGUCGCAGCCCCUGUCAGAUUCUGGUGAGCCUGCGAAUUCUGCUGUAUAUCUC [A13U U26C A57G U58C], with 0.08; and UAACAGGGGGCCUCAGCAGAAGCGUACACGUCGCAGCCCCUGUCAGAUUCAGGUGAAUCUGCGAAUUCUGCUGUAUACCUC [A13U U26A U51A U78C], with 0.98.
The figure for UAACAGGGGGCCUCAGCAGAAGCGCUCACGUCGCAGCCCCUGUCAGAUUCUGGCGAAUCUGCGAUUUCUGCUGUAUAUCUC [A13U U25C U54C A65U] is 0.19; for UAACAGGGGGCCUCAGCAGAAGCGUACACGUCGCAGCUCCUGUCAGAUUCUGGUGAGUCUGCGGAUUCUGCUGAAUACCUC [A13U U26A C38U A57G A64G U74A U78C] it is 0.06; for UAACAGGGGGCCUCAGCAGAAGCGUACACGUCGCAGCCCUUGUCAGGCUCGGGUGAAUCUGCGAAUUCUGCUGUAGAUCUC [A13U U26A C40U A47G U48C U51G U76G] it is 0.04.
For UAACAGGGGGCCUCAGCAGAAGCGUUCACGACGCGGCCCCUGUCAGAUUCUGGUGAAUCUGCGAAUUCUGCUGUAUAUCUC [A13U U31A A35G], the self-cleavage amounted to 1.19.
Then UAACAGGGGGCCUCAGCAGAAGCGUCCACGUCGCAGCCCCUGUCAGAUUCCGGUGAAUCCGCGAAUUCUGCUGUAUAUCUC [A13U U26C U51C U60C], with 0.23; and UAACAGGGGGCCUCAGCAGAAGCGUCCACGUCGCAGCUCCUGUCAGAUUCUGGUGGAUCUGCGAAUUCUGCUGUAUAUCUC [A13U U26C C38U A56G], with 0.21; and UAACAGGGGGCCUCAGCAGAAGCGCUCACGUCGCAGCCCCUGCCAGAAUCUGGUGAAUCUGCGAAUUCUGCUGUAUAUCUC [A13U U25C U43C U48A], with 0.05.
The figure for UAACAGGGGGCCUCAGCAGAAGCGUUCACGACGCAGCCCCUGUCAGAUACUGGUGAAUCUGCGAAUUCUGCUGUAUAUCUC [A13U U31A U49A] is 0.62.
Consider UAACAGGGGGCCUCAGCAGAAGCGCUCACGUCGCAGCCCCUGUCAGAUUCCGGUGAAUCUGCGAACUCUACUGUAUAUCUC [A13U U25C U51C U66C G70A], for which the self-cleavage amounted to 0.09.
Then UAACAGGGGGCCUCAGCAGAAGCGCUCACGUCGCAGCCCCUGUCAGAUUCUGGCGAAUCUGCGAAUUCUGCUGUAUAUCUC [A13U U25C U54C], with 0.1; and UAACAGGGGGCCUCAGCAGAAGCGUACACGUCGCAGCCCCAGUCAGAUUCUGGUGAAUCUGCGAAUUCUGCUGUAUAUCUC [A13U U26A U41A], with 0.12.
Take UAACAGGGGGCCUCAGCAGAAGCGUACACGUCGCAGCCCCUGGCUGAUUCUGGUGAAUCUGCGAAUUCUGCUGUAUAUCUC [A13U U26A U43G A45U]: the self-cleavage was found to be 0.18.
With UAACAGGGGGCCUCAGCAGAAGCGUACACGUCGCAGCCCCUGGCAGAUUCUGGUGAAUCUGCGAAUUCUGCUGUAUAUCUC [A13U U26A U43G], the self-cleavage is 0.25.
With UAACAGGGGGCCUCAGCAGAAGCGCUCACGUCGCAGCCCCUGUCAGAUUCUGGUGAAUCUGCGAAUUCUGCUGAAUAUCUC [A13U U25C U74A], the self-cleavage was 0.16.
Then UAACAGGGGGCCUCAGCAGAAGCGUUCACGAUGCCGCCCCUGUCAGAUUCUGGUGAAUCUGCGGAUUCUGCUGUAUAUCUC [A13U U31A C32U A35C A64G], with 0.19; and UAACAGGGGGCCUCAGCAGAAGCGUCCACAUCGCAGCCCCUGUCAGAUUCUGGUGAAUCUGCGUAUUCUGCUGAAUAUCUC [A13U U26C G30A A64U U74A], with 0.13; and UAACAGGGGGCCUCAGCAGAAGCGCUCACGUCGCAGCCCCUGUCAGAUUCUGGUGAAUCUGCGAAUUCUGCAGUAUAUCUC [A13U U25C U72A], with 0.09.
Turning to UAACAGGGGGCCUCAGCAGAAGCGGUCACGUCGCAGCCCCCGUCAGAUUCUGGUGGAUCUGCGAAUUCUGCCGUAUAUCUC [A13U U25G U41C A56G U72C], the self-cleavage was 0.09.
The figure for UAACAGGGGGCCUCAGCAGAAGCGUGCACGUCGCAGCCCCUGUCAGAUUCUGGUGAAUCUGCGAAUUCUGCUGUAUAUCAC [A13U U26G U80A] is 0.57; for UAACAGGGGGCCUCAGCAGAAGCGUCCACGUCGCAGCCCCUGUCAGAUUCUGGUGAAGCUGCGAAUUCUGCUGUAUAUCUC [A13U U26C U58G] it is 0.53; for UAACAGGGGGCCUCAGCAGAAGCGUCCACGUCGCAGCCCCUGUCAGGUUCUGGUGAAUCUGCGAAUUCUGCUGUACAUCUC [A13U U26C A47G U76C] it is 0.58.
